The labels stand for the following.
T1: human neutrophil elastase (human, UniProt P08246 30-247)
T1 construct: also called HNE; immobilized HNE
T1 sequence (looked up): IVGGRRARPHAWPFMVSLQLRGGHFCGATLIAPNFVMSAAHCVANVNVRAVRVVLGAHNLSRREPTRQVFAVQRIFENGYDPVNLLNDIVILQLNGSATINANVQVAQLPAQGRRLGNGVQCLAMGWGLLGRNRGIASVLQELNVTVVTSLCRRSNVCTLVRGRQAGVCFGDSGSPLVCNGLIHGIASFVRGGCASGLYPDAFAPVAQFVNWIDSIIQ

B1: EpiNE7.21 display phage (designed binder)
chain: RPDFCLEPPYTGPCVAMFPRYFYNAKAGLCQTFHYGGCWGQGNNFKSAEDCMRTCGGA
notes: not shown: M13 gene III protein, mature
B2: EpiNE7.22 display phage (designed binder)
chain: RPDFCLEPPYTGPCVAMFPRYFYNAKAGLCQTFHYGGCWGEGNNFKSAEDCMRTCGGA
notes: as for B1
B3: EpiNE7.28 display phage (designed binder)
chain: RPDFCLEPPYTGPCVAMFPRYFYNAKAGLCQTFTYGGCLGHGNNFKSAEDCMRTCGGA
notes: as for B1
B4: EpiNE7.30 display phage (designed binder)
chain: RPDFCLEPPYTGPCVAMFPRYFYNAKAGLCQTFKYGGCWAEGNNFKSAEDCMRTCGGA
notes: also called EpiNE7.34; EpiNE7.35; not shown: M13 gene III protein, mature
B5: EpiNE7.25 display phage (designed binder)
chain: RPDFCLEPPYTGPCVAMFPRYFYNAKAGLCQTFPYGGCWAKGNNFKLAEDCMRTCGGA
notes: as for B1
B6: EpiNE7.38 display phage (designed binder)
chain: RPDFCLEPPYTGPCVAMFPRYFYNAKAGLCQTFYYGGCWAKGNNFKSAEDCMRTCGGA
notes: as for B1
B7: EpiNE7.40 display phage (designed binder)
chain: RPDFCLEPPYTGPCVAMFPRYFYNAKAGLCQTFTYGGCHGNGNNFKSAEDCMRTCGGA
notes: as for B1
B8: EpiNE7.39 display phage (designed binder)
chain: RPDFCLEPPYTGPCVAMFPRYFYNAKAGLCQTFMYGGCWGDGNNFKSAEDCMRTCGGA
notes: as for B1
B9: EpiNE7.37 display phage (designed binder)
chain: RPDFCLEPPYTGPCVAMFPRYFYNAKAGLCQTFMYGGCQGKGNNFKSAEDCMRTCGGA
notes: as for B1
B10: EpiNE7.26 display phage (designed binder)
chain: RPDFCLEPPYTGPCVAMFPRYFYNAKAGLCQTFKYGGCWGHGNNFKSAEDCMRTCGGA
notes: as for B1
B11: EpiNE7.33 display phage (designed binder)
chain: RPDFCLEPPYTGPCVAMFPRYFYNAKAGLCQTFEYGGCWANGNNFKSAEDCMRTCGGA
notes: as for B1
B12: EpiNE7.32 display phage (designed binder)
chain: RPDFCLEPPYTGPCVAMFPRYFYNAKAGLCQTFGYGGCWGEGNNFKSAEDCMRTCGGA
notes: as for B1
B13: EpiNE7.29 display phage (designed binder)
chain: RPDFCLEPPYTGPCVAMFPRYFYNAKAGLCQTFTYGGCLGYGNNFKSAEDCMRTCGGA
notes: as for B1
B14: EpiNE7.24 display phage (designed binder)
chain: RPDFCLEPPYTGPCVAMFPRYFYNAKAGLCQTFKYGGCHGNGNNFKSAEDCMRTCGGA
notes: as for B1
B15: EpiNE7.27 display phage (designed binder)
chain: RPDFCLEPPYTGPCVAMFPRYFYNAKAGLCQTFNYGGCWGKGNNFKSAEDCMRTCGGA
notes: as for B1

Consider 15 molecules from patent US20070259417A1 (published 2007).

This assay addresses T1, human neutrophil elastase. Briefly: clone from pH 2.0 eluate after 3 rounds of affinity selection of the KLMUT library on immobilized HNE (second fractionation).
Consider B1, for which the binding result is “binds”.

B2: the binding result is on record as “binds”.

For the molecule B3, the binding result is given as “binds”.

As to B4, the binding result is reported as “binds”.

Turning to B5, the binding result is given as “binds”.

Turning to B6, the binding result is “binds”.

For the molecule B7, the binding result is listed as “binds”.

For B8, the binding result was “binds”.

Consider B9, for which the binding result is “binds”.

Take B10: the binding result is “binds”.

For the molecule B11, the binding result is on record as “binds”.

In the case of B12, the binding result is listed as “binds”.

Turning to B13, the binding result was “binds”.

For B14, the binding result is on record as “binds”.

For B15, the binding result was “binds”.
